Assay results published in the supplement of paper PMC4967469.

Assays:
Assay in all cases: Viability of human cancer cell lines after 72 h of drug (GDSC screen)
TPCA-1 = compound: NC(=O)Nc1sc(-c2ccc(F)cc2)cc1C(N)=O [TPCA-1]; conditions: top dose 20 µM
Experimental: (§1)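 Human cancer cell lines in 384-well plates, medium with 10% serum, drug for 72 h over a 256-fold dose range (nine 2-fold or five 4-fold steps up to the top dose). Adherent lines were fixed and stained with the nucleic acid dye Syto60, suspension lines read with resazurin; signal relative to control wells, capped at 0 and 100%. One two-parameter sigmoid per drug and line, fitted in a mixed model over all curves with the slope shared within a line.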

Y-39983 = compound: C[C@@H](N)c1ccc(C(=O)Nc2ccnc3[nH]ccc23)cc1 [Y-39983]; conditions: top dose 20 µM; top dose inferred
Experimental: as §1

PLX4720 = compound: CCCS(=O)(=O)Nc1ccc(F)c(C(=O)c2c[nH]c3ncc(Cl)cc23)c1F [PLX4720]; conditions: top dose 10 µM
Experimental: as §1

PHA-793887 = compound: CC(C)CC(=O)Nc1n[nH]c2c1CN(C(=O)C1CCN(C)CC1)C2(C)C [PHA-793887]; conditions: top dose 10.24 µM
Experimental: as §1

[1] = screen: GDSC drug entry 1371, top dose inferred

Cell Line	AUC (TPCA-1)	IC50 (TPCA-1)	AUC (Y-39983)	IC50 (Y-39983)	AUC (PLX4720; screen: GDSC drug entry 1036)	IC50 (PLX4720; screen: GDSC drug entry 1036)	AUC (PLX4720; [1])	IC50 (PLX4720; [1])	AUC (PHA-793887)	IC50 (PHA-793887)
OV-56 (ovary, adherent)	0.961	> 20 µM	0.96	> 20 µM	0.946	> 10 µM	0.985	> 10 µM	0.903	> 10.2 µM
OVCA420 (ovary, adherent)	0.904	> 20 µM	0.965	> 20 µM	0.982	> 10 µM	0.975	> 10 µM	0.979	> 10.2 µM
OVCA433 (ovary, adherent)	0.939	> 20 µM	0.9	> 20 µM	0.985	> 10 µM	0.983	> 10 µM	0.957	> 10.2 µM
OVK-18 (ovary, adherent)	0.973	> 20 µM	0.981	> 20 µM	0.986	> 10 µM	0.984	> 10 µM	0.948	> 10.2 µM
PEO1 (ovary, adherent)	0.909	> 20 µM	0.983	> 20 µM	0.985	> 10 µM	0.984	> 10 µM	0.987	> 10.2 µM
QGP-1 (pancreas, adherent)	0.842	> 20 µM	0.92	> 20 µM	0.967	> 10 µM	0.976	> 10 µM	0.741	4.91 µM
RCC-AB (kidney, adherent)	0.801	13.5 µM	0.931	> 20 µM	0.978	> 10 µM	0.716	3.12 µM	0.867	> 10.2 µM
RCC-ER (kidney, adherent)	0.986	> 20 µM	0.985	> 20 µM	0.955	> 10 µM	0.968	> 10 µM	0.983	> 10.2 µM
RCC-FG2 (kidney, adherent)	0.836	18.7 µM	0.951	> 20 µM	0.916	> 10 µM	0.931	> 10 µM	0.979	> 10.2 µM
RCC-JF (kidney, adherent)	0.814	12.7 µM	0.707	5.22 µM	0.922	> 10 µM	0.961	> 10 µM	0.806	6.03 µM
RCC-JW (kidney, adherent)	0.908	> 20 µM	0.909	> 20 µM	0.952	> 10 µM	0.979	> 10 µM	0.556	0.914 µM
RCC-MF (kidney, adherent)	0.76	9.05 µM	0.837	19.4 µM	0.928	> 10 µM	0.942	> 10 µM	0.872	> 10.2 µM
SK-GT-4 (oesophagus, adherent)	0.936	> 20 µM	0.976	> 20 µM	0.861	> 10 µM	0.97	> 10 µM	0.894	> 10.2 µM
SK-MEL-5 (melanoma, adherent)	0.983	> 20 µM	0.983	> 20 µM	0.664	1.99 µM	0.75	3.91 µM	0.919	> 10.2 µM
SK-MG-1 (glioma, adherent)	0.935	> 20 µM	0.888	> 20 µM	0.987	> 10 µM	0.986	> 10 µM	0.915	> 10.2 µM
SNU-61 (large intestine, adherent)	0.863	> 20 µM	0.98	> 20 µM	0.983	> 10 µM	0.976	> 10 µM	0.666	2.17 µM
SNU-81 (large intestine, adherent)	0.977	> 20 µM	0.968	> 20 µM	0.97	> 10 µM	0.979	> 10 µM	0.681	2.45 µM
SNU-175 (large intestine, suspension)	0.812	9.87 µM	0.805	9.39 µM	–	–	–	–	0.468	0.526 µM
SNU-407 (large intestine, adherent)	0.635	3.16 µM	0.865	> 20 µM	0.974	> 10 µM	0.978	> 10 µM	0.835	8.42 µM
SNU-1040 (large intestine, adherent)	0.718	6.51 µM	0.904	> 20 µM	–	–	0.94	> 10 µM	0.697	2.79 µM
SNU-C5 (large intestine, adherent)	0.905	> 20 µM	0.963	> 20 µM	0.909	> 10 µM	0.886	> 10 µM	0.892	> 10.2 µM
SU-DHL-10 (B-cell lymphoma, suspension)	0.645	2.8 µM	0.859	9.51 µM	0.98	> 10 µM	0.997	> 10 µM	0.182	0.107 µM
SUP-B8 (B-cell leukaemia, suspension)	–	–	–	–	0.806	5.01 µM	0.986	> 10 µM	–	–
SW1116 (large intestine, adherent)	0.98	> 20 µM	0.985	> 20 µM	–	–	0.984	> 10 µM	0.984	> 10.2 µM
TC-YIK (cervix, suspension)	–	–	–	–	0.97	> 10 µM	0.968	> 10 µM	–	–
TE-4 (oesophagus, adherent)	0.979	> 20 µM	0.983	> 20 µM	0.983	> 10 µM	0.964	> 10 µM	0.82	5.84 µM
U-266 (myeloma, semi-adherent)	–	–	–	–	0.964	> 10 µM	0.973	> 10 µM	–	–
VMRC-LCD (lung adenocarcinoma, adherent)	–	–	–	–	0.993	> 10 µM	0.969	> 10 µM	–	–
YMB-1-E (breast, adherent)	0.981	> 20 µM	0.969	> 20 µM	–	–	–	–	0.853	> 10.2 µM
ZR-75-30 (breast, adherent)	–	–	–	–	0.983	> 10 µM	0.979	> 10 µM	–	–

The IC50 comes from the fitted curve, where viability falls to half of the control; a limit (>, <) means that the fit lies beyond the doses tested. AUC sums up the same curve from the lowest dose to the 256-fold higher top dose; it is 1 without any effect and falls as sensitivity rises. For part of these data: An inferred top dose is not printed in the source and was worked back from the curve model. For part of these data: Drugs with an entry number were screened twice under separate entries, and the two screens often disagree.
